The whole screen tested about 330,000 compounds, of which about 560 (0.17%) were called active. Not shown: some 1% with an inconclusive outcome. Calls follow the shape of the dose curve; as a rule, active = well fitted inhibition curve with a large enough effect; inconclusive = small, poorly fitted or top-dose-only effect, or effect the other way; inactive = flat fitted curve, though single readings scatter. This is a selection; strong and weak results do not stand in their true shares.
Target: ATP-dependent 6-phosphofructokinase (Trypanosoma brucei brucei) (UniProt O15648)
Experiment: qHTS Assay to Find Inhibitors of T. brucei phosphofructokinase; also: nearly all actives have a fitted effect of over 60% in size
Settings: T. brucei PFK, ADP-Glo luminescence; series mostly up to 57.5 µM; activity, negative = inhibition: at the top concentration
From the text: NIH Molecular Libraries Probe Production Network [MLPCN] NIH Chemical Genomics Center [NCGC] Grant: 1 R03 MH092153-01 PI Name: Malcolm Walkinshaw, University of Edinburgh NCGC Assay Overview: Various species of the protozoan family Trypanosomatidae are responsible for a range of serious human diseases in tropical and subtropical areas of the world. […] Many of the disorders caused by trypanosomatids are fatal if left untreated, but most currently used drugs are inefficient and toxic. […] Oxidative metabolism involving the mitochondrial tricarboxylic acid cycle and oxidative phosphorylation are repressed in these parasites, and recent RNA interference (RNAi) experiments have shown that even partial depletion of certain individual glycolytic enzymes can lead to the death of cultured parasites. One such glycolytic enzyme, phosphofructokinase (PFK), catalyzes the formation of fructose-1,6-bisphosphate (F1,6BP) and ADP from fructose-6-phosphate (F6P) and ATP, and in many metabolic circumstances makes an important contribution to the control of flux through the glycolytic pathway. As a specific glycolytic target, PFK is particularly attractive as it catalyzes the first irreversible step in glycolysis, and structural and kinetic studies have shown very substantial and essential differences from corresponding host enzymes, allowing for the discovery of parasite-selective inhibitors. The goal of this screen is to find small-molecule inhibitors of T. brucei PFK using a biochemical assay that measures PFK activity as a function of ADP production. A luminescence-based assay for T. brucei PFK activity has been developed which uses luciferase to detect production of ADP. Traditional luciferase-based nucleotide detection reagents rely on ATP production as a direct substrate for the luciferase reaction; however, PFK catalyzes the transfer of a phosphate from ATP to F6P, resulting in the net depletion of ATP. To directly measure the ADP product of the PFK reaction, we used the ADP-Glo detection kit (Promega), which utilizes two separate reactions to 1) deplete all remaining uncatalyzed ATP and 2) convert all remaining ADP to ATP, which is then detected through a traditional luciferase-coupled reaction. Compounds were screened as a concentration-titration series that ranged from 57 uM to 0.7 nM.
NCGC Assay Protocol Summary: NCGC Assay Protocol Summary: Substrate buffer was dispensed into white, solid 1536-well plates at 3uL/well in 0.1M triethanolamine (TEA) buffer, pH 8.0, containing final concentrations of 5 mM MgCl2, 0.01% Tween20, 0.5 mM fructose-6-phosphate (F6P) and 0.1mM ATP. Then, 23 nL of compounds or DMSO were delivered to each well using a pin tool. One uL T. brucei PFK (0.1M TEA, 0.01% Tween20, 0.1% bovine serum albumin (BSA) and 1.25nM PFK, final concentrations) was then dispensed, and plates were incubated at room temperature for 45 min. The luminescent detection reagent, ADP-Glo (Promega), was then added in two steps: the first reagent, ADP-Glo (which converts remaining uncatalyzed ATP), was added at 2.5uL/well and incubated for ten minutes at room temperature, and the second component, Kinase Detection reagent (which converts ADP to ATP as a substrate for luciferase-based luminescence), was added immediately after at 5uL/well, followed by one final ten minute room temperature incubation. The plates were measured on a ViewLux plate reader for luminescent signal using a clear filter with a one second exposure. The %Activity was determined from the corrected luminescence values. As no specific T. brucei PFK inhibitors have been identified in the literature, 1x (1.25nM) and 0x PFK enzyme controls (untreated) were included to normalize %Activity of identified inhibitors; 0x enzyme values corresponded to 100%Activity (full inhibition), while 1x PFK enzyme values were used to normalize 0%Activity (no inhibition). Concentration-response curves were fitted to the signals arising from the resulting luminescence. […]
Potency is read from the fitted curve at half-maximal effect.

UniProt O15648, sequence (O15648 whole entry, looked up): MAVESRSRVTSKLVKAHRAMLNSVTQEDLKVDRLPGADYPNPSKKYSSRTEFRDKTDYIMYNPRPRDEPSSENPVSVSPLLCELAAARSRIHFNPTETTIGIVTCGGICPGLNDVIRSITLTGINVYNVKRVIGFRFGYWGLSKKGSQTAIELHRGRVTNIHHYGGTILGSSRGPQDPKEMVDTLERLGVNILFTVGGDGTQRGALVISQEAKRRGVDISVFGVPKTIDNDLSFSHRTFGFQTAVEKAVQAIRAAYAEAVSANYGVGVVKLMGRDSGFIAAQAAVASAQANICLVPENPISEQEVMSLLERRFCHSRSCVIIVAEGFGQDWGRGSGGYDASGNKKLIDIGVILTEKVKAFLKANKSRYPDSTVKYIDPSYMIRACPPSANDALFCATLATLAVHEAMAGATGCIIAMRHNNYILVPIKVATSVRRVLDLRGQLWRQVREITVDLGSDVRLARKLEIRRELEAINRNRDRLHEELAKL

Compound	Potency	activity, negative = inhibition
C[C@H](NC(=O)C1CCN(S(=O)(=O)c2ccccc2)CC1)C(=O)NCc1ccc(Cl)c(Cl)c1	active: 26.9 µM	
O=C(O)c1cc(-c2ccc(/C=c3\sc4nc5ccc(Br)cc5n4c3=O)o2)ccc1Cl	active: 0.849 µM	
CC(C)(C)OC(=O)C[C@H]1C/C=C\C[C@H](CC(=O)NCCO)C(=O)NC[C@@H](c2ccccc2)OC1=O		inactive: -6.55%
CN(Cc1ccco1)c1ncnc2ccc(-c3ccoc3)cc12		inactive: -25.2%
Oc1cc(O)c2c(c1)O[C@H](c1ccc(O)c(O)c1)[C@@H](O)C2		inactive: -10.9%
Cc1ccc(NC(=O)CN2C(=O)N/C(=C\c3ccco3)C2=O)cc1		inactive: -0.306%
Cc1ccc(S(=O)(=O)/N=C2/NC(=O)/C(=C/c3ccccc3)S2)cc1		inactive: 9.57%
CCOC(=O)/C(=C\C=C1/Sc2ccccc2N1CC)C(C)=O		inactive: 5.27%
CC(C)(C)OC(=O)C[C@H]1C/C=C\C[C@@H](CC(=O)NCCO)C(=O)NC[C@@H](c2ccccc2)OC1=O		inactive: 11.1%
S=C(Nc1ccccn1)c1ccccn1		inactive: -15.8%
O=C1OC(c2ccccc2)=C/C1=C\N1CCOCC1		inactive: -26.8%
C=CC[C@@H](CC(=O)N[C@@H](CO)Cc1ccccc1)C(=O)N[C@H](COC(=O)[C@@H](CC=C)Cc1ccc(F)cc1)Cc1ccccc1		inactive: 1.67%
COc1ccc(C(=O)O/N=C(\N)c2ccccn2)cc1	active: 15.1 µM	
C=CC[C@@H](CC(=O)N[C@@H](CO)Cc1ccccc1)C(=O)N[C@@H](COC(=O)[C@@H](CC=C)Cc1ccc(F)cc1)Cc1ccccc1		inactive: 2.02%
COc1cc(N=c2ssnc2Cl)c(OC)cc1Cl		inactive: 0.784%
CC(C)(C)OC(=O)C[C@@H]1C/C=C\C[C@H](CC(=O)N(CCO)Cc2ccccc2)C(=O)N[C@H](C(C)(C)C)COC1=O		inactive: -5.12%
CC(C)(C)OC(=O)C[C@H]1C/C=C\C[C@H](CC(=O)NCCO)C(=O)NC[C@H](c2ccccc2)OC1=O		inactive: -2.63%
CC(=C/c1ccco1)/C=N/NC(=O)Cc1cccn1C		inactive: -1.85%
Cc1ccc2c(c1C)NC(C(=O)O)C1CC=CC21 (stereo unspecified)		inactive: -10.5%
CN(/C=C/C(=C/C=[N+](C)c1ccccc1)OCCCS(=O)(=O)[O-])c1ccccc1		inactive: -20.1%
O=C(NC1CCS(=O)(=O)C1)/C(=C\c1ccco1)NC(=O)c1ccccc1 (stereo unspecified)		inactive: -3.44%
Oc1cc(O)c2c(c1)O[C@H](c1ccc(O)c(O)c1)[C@H](O)C2		inactive: -11.9%
CCn1c(/C=C2\C(=O)N(C)c3ccccc32)nc2ccccc2c1=O		inactive: -6.29%

Compound	Potency	activity, negative = inhibition
COc1ccc(NC(=O)/C(C#N)=C\c2ccc(Br)o2)cc1		inactive: -17%
CC(=O)C[C@@H](O)CC(=O)[C@H]1OC(=O)[C@H](C)CCCCc2ccccc21		inactive: -1.01%
COc1ccc([C@@H]2CC(=O)c3c(O)cc(O[C@@H]4OC(CO[C@@H]5OC(C)[C@H](O)[C@@H](O)[C@H]5O)[C@@H](O)[C@H](O)[C@H]4O)cc3O2)cc1O (stereo partly specified)		inactive: 0.29%
CC1=NN(Cc2ccccc2)C(=O)/C1=C/c1ccc(N(C)C)cc1		inactive: -1.43%
COc1ccc(S(=O)(=O)/N=C2/NC(=O)/C(=C/c3ccco3)S2)cc1		inactive: 3.81%
C/C=C(/C)C(=O)OC1CC(C)(C)C[C@H]2C3=CC[C@@H]4[C@@]5(C)CCC(O[C@@H]6O[C@@H](C(=O)O)[C@@H](O)C(O[C@@H]7OC[C@H](O)[C@@H](O)[C@@H]7O[C@@H]7OC(CO)C(O)[C@@H](O)[C@@H]7O)C6O[C@@H]6OC(CO)C(O)C(O)C6O)[C@@](C)(CO)[C@@H]5CC[C@]4(C)[C@]3(C)CC(O)[C@@]12CO (stereo partly specified)		inactive: 6.33%
Nc1ccc(C(=O)O)cc1		inactive: -5.87%
Nc1ncn(C2O[C@H](CO)[C@@H](O)[C@H]2O)c(=O)n1 (stereo partly specified)		inactive: 0.391%
Cc1occc(=O)c1OC(=O)Nc1ccc(Cl)c(Cl)c1	active: 30.1 µM	
O=c1cc(-c2ccccc2)oc2cc(O)c(O)c(O)c12	active: 7.57 µM	
CC(=O)C[C@@H](O)CC(=O)[C@@H]1OC(=O)[C@H](C)CCCCc2ccccc21		inactive: -1.9%
Nc1c2c(nc3ccccc13)CCCC2		inactive: -5.86%
CCOC(=O)c1c(NC(=O)COC(=O)c2ccc(NC(=O)CC#N)cc2)sc(C(=O)NC)c1C	active: 0.849 µM	
O=C(Cc1cccs1)N/N=C/C=C\c1ccco1		inactive: 0.121%
CC(C)NCC(O)c1ccc(O)c(O)c1 (stereo unspecified)		inactive: 0.554%
CCN1CCN(c2nc(C)nc3c2sc(=S)n3C)CC1	active: 19 µM	
CC(C)(C)OC(=O)C[C@@H]1C/C=C\C[C@@H](CC(=O)NCCO)C(=O)NC[C@@H](c2ccccc2)OC1=O		inactive: -14.3%
CC1=C/C(=C(/c2cc(C)c(O)c(Br)c2)c2ccccc2S(=O)(=O)O)C=C(Br)C1=O		inactive: -29.8%
N[C@@H](Cc1cc(I)c(Oc2ccc(O)c(I)c2)c(I)c1)C(=O)O	inactive	
COc1ccc(NC(=O)N(C)C[C@H]2Oc3ccc(NS(=O)(=O)c4cccs4)cc3C(=O)N([C@@H](C)CO)C[C@@H]2C)cc1		inactive: 1.48%
O=C(CCS(=O)(=O)c1ccc(F)cc1)Nc1nc(-c2ccncc2)cs1	active: 21.3 µM	
CCNc1nc(NCC)n2c(SCC(=O)Nc3ccc(CC)cc3)nnc2n1	active: 21.3 µM	
CC1(C)S[C@@H]2[C@H](NC(=O)[C@H](N)c3ccccc3)C(=O)N2[C@H]1C(=O)O		inactive: 4.35%

— PubChem BioAssay AID485367 (National Center for Advancing Translational Sciences (NCATS), 2010)
